Results taken from PMC4336329 (PLoS ONE, 2015).
Out of some 310,000 compounds screened, about 14,000 (4.5%) showed an effect of 50% or more. Effects have a minus sign here. The list shows a part of the results.

Each compound was assayed against human ether-à-go-go-related gene (hERG) potassium channel (human, UniProt Q12809) (assay: primary screen, population patch clamp on CHO cells stably expressing hERG).
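Also: peak tail current of the secondary pulse compared with the same well before compound.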

Chain of human ether-à-go-go-related gene (hERG) potassium channel (Q12809 whole entry, looked up): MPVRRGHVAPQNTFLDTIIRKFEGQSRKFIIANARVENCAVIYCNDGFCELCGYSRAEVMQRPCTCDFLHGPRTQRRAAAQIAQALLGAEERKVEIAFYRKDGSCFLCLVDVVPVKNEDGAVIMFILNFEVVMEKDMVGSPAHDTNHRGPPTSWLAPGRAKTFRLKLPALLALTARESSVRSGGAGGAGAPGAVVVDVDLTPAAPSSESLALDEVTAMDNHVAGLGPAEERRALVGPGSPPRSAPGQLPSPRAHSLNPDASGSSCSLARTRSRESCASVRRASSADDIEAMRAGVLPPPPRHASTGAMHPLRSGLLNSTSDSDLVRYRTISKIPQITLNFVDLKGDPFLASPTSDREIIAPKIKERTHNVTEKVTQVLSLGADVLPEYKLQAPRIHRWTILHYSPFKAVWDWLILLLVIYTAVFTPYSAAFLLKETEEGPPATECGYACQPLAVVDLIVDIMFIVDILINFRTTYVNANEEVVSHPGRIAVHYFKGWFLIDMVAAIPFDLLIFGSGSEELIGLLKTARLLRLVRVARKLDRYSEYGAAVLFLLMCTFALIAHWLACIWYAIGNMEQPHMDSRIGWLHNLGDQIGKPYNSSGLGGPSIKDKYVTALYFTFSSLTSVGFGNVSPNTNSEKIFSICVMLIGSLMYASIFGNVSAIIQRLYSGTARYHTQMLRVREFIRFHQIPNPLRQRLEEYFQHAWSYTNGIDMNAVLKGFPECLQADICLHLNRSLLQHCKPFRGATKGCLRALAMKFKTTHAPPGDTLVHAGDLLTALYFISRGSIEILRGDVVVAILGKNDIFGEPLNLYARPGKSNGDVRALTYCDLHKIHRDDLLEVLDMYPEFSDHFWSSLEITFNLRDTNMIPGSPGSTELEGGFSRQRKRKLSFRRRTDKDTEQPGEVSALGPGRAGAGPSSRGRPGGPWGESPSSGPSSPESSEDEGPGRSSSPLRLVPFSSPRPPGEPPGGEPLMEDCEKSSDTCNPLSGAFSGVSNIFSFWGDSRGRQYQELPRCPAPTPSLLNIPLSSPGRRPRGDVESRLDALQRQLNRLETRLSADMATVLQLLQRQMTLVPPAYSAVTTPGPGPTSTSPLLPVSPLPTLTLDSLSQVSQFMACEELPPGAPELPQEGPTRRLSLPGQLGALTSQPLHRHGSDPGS

Going from `COC(=O)c1cc(-n2cccc2)ccc1N1CCOCC1` to `CN1CCN(c2ccc([N+](=O)[O-])cc2C(=O)N2CCOCC2)CC1`, the “hERG current change (%, negative = inhibition) at 10uM” value rises from -1.75% to 12.3%.

First: Oc1ccc(/C=N/Nc2nccnc2Cl)cc1
Second: CC1CCN(C2=NC(=O)/C(=C/c3ccc(O)cc3)S2)CC1
The “hERG current change (%, negative = inhibition) at 10uM” value of the first is higher: 1.47% for the first, -24.7% for the second.

First: CC(C)C(=O)Nc1ccc(C(=O)CSc2nnc(C3CC3)n2C2CC2)cc1
Second: O=C(CSc1nnnn1-c1ccc(C(=O)O)cc1)NC1CC1
The “hERG current change (%, negative = inhibition) at 10uM” value of the first is lower: 1.58% for the first, 2.23% for the second.

Going from `NC(=O)c1nsc(C(=O)N(c2ccc(F)cc2)C(C(=O)NC2CCCC2)c2ccncc2)c1N` (centres unmarked) to `COc1ccc(-c2nnn(CC(=O)N(CCN3CCOCC3)C(C(=O)NC3CCCCC3)c3ccco3)n2)cc1` (centres unmarked), the “hERG current change (%, negative = inhibition) at 10uM” value falls from -0.193% to -10.3%.

Compared with `Cc1cc(C)cc(N(CC(=O)N2CCOCC2)S(=O)(=O)c2ccccc2)c1`, `CSc1ccc(S(=O)(=O)Nc2ccc(OCC(=O)N3CCOCC3)cc2)cc1` is higher in “hERG current change (%, negative = inhibition) at 10uM” value: -56.1% for the first, 5.18% for the second.

Compared with `O=C(CSc1nnc(NC(=O)c2cc(Br)ccc2Cl)s1)NCC1CCCO1` (centres unmarked), `CCOC(=O)c1ccc(N2C(=O)CC(Sc3nnc(C)s3)C2=O)cc1` (centres unmarked) is lower in “hERG current change (%, negative = inhibition) at 10uM” value: 18.9% for the first, 9.58% for the second.

First: CCN(CC)S(=O)(=O)c1ccc(OC)c(-n2cnnn2)c1
Second: COc1cccc(-c2nnn(CC(=O)N3CCC(C)CC3)n2)c1
The “hERG current change (%, negative = inhibition) at 10uM” value of the first is lower: 11.5% for the first, 15.2% for the second.

Compared with `CCOC(=O)c1sc(NC(=O)CCN2CCC(C)CC2)c(C(=O)OCC)c1C`, `Cc1ccc(C)c(N2CCN(CCCNC(=O)Cn3c(=O)c4cccn4c4cccnc43)CC2)c1` is lower in “hERG current change (%, negative = inhibition) at 10uM” value: 9% for the first, -59.6% for the second.

First: CC1Cc2ccccc2N1C(=O)CSc1nnc(-c2ccc(S(=O)(=O)N3CCOCC3)cc2)n1C (centres unmarked)
Second: CC1CN(S(=O)(=O)c2cccc(C(F)(F)F)c2)C(C)N1C(=O)N1CCOCC1 (centres unmarked)
The “hERG current change (%, negative = inhibition) at 10uM” value of the first is lower: -1.02% for the first, 24.9% for the second.

First: Cc1cccc(C)c1OCc1cc(C(=O)N2CCC(c3ccncc3)CC2)no1
Second: COc1cccc(CN2CCCC(C(=O)Nc3ccc(-c4cscn4)cc3)C2)c1 (centres unmarked)
The “hERG current change (%, negative = inhibition) at 10uM” value of the first is lower: -55.8% for the first, -31.1% for the second.

Going from `CCc1ccc(S(=O)(=O)NCc2csc(C)n2)s1` to `CCOc1c(C)cc(S(=O)(=O)NCc2cccnc2)c(C)c1C`, the “hERG current change (%, negative = inhibition) at 10uM” value rises from 1.6% to 17.5%.

Going from `CC(C)CC(=O)NN1CCCCC1` to `O=C(O)Cn1nc(C(F)(F)F)c2c1CCCCC2`, the “hERG current change (%, negative = inhibition) at 10uM” value falls from 2.9% to -2.55%.

First: CCn1c(O)c(C=NCc2ccccc2)sc1=S
Second: CCSc1nnc(CNC(=O)C23CC4CC(CC(C4)C2)C3)n1Cc1ccccc1
The “hERG current change (%, negative = inhibition) at 10uM” value of the first is higher: 7.15% for the first, -5.81% for the second.

Going from `COc1ccccc1NC(=S)NC1CCCCCCCCCCC1` to `O=C(COc1coc(CN2CCN(c3ccccc3)CC2)cc1=O)NC1CCCC1`, the “hERG current change (%, negative = inhibition) at 10uM” value falls from 9.77% to -13.6%.

Going from `CCOC(=O)CSc1nc2cc3c(cc2cc1C#N)OCCO3` to `CCOC(=O)Cn1nc(-c2ccc(C)cc2)c2ccccc2c1=O`, the “hERG current change (%, negative = inhibition) at 10uM” value rises from 19% to 35.8%.

Compared with `CCc1ccc(C(=O)Cn2cnc3cc([N+](=O)[O-])ccc3c2=O)cc1`, `CC(C)(C)c1ccc(OCc2ccc(C(=O)N/N=C/c3ccc([N+](=O)[O-])cc3)o2)cc1` is higher in “hERG current change (%, negative = inhibition) at 10uM” value: -12.4% for the first, 3.69% for the second.

Compared with `CCC(NC(=O)C(C)NC)C(=O)N1CCCC1C(=O)NC1CCCc2ccccc21.O=CO` (centres unmarked), `Cc1cc(Cl)cc(C)c1OCCNCc1ccccc1.O=C(O)C(=O)O` is lower in “hERG current change (%, negative = inhibition) at 10uM” value: 11.1% for the first, -3.66% for the second.

Going from `COc1ccc(OC)c(CCNC(=O)Cn2cccc2C(=O)c2ccccc2)c1` to `CCOc1ccc(N(CC(=O)NCCSCc2ccco2)S(=O)(=O)c2ccc(C)cc2)cc1`, the “hERG current change (%, negative = inhibition) at 10uM” value rises from -8.08% to 10.1%.

Going from `Cc1cccc(/C=N/Nc2cc(N3CCOCC3)nc(N3CCOCC3)n2)c1` to `O=C(c1cc2ccccc2o1)N1CCN(c2ccccn2)CC1`, the “hERG current change (%, negative = inhibition) at 10uM” value falls from 5.07% to -1.59%.

Going from `NNC(=O)c1n[nH]c(=O)c2ccccc12` to `O=C(NNS(=O)(=O)c1ccccc1)Nc1ccc(F)cc1`, the “hERG current change (%, negative = inhibition) at 10uM” value rises from -5.39% to 16.5%.

First: COC(=O)c1cc(=O)n(Cc2ccco2)c(=Nc2ccc(F)cc2)s1
Second: COc1ccc(C2CC2C(=O)c2ccccn2)cc1 (centres unmarked)
The “hERG current change (%, negative = inhibition) at 10uM” value of the first is lower: -7.31% for the first, 8.72% for the second.

First: CC(=O)Nc1nc(-c2ccc(Cl)cc2)nc(C)c1C(C)=O
Second: COCc1[nH]nc2c1C(c1cc(OC)c(O)c(OC)c1)C(C#N)=C(N)O2 (centres unmarked)
The “hERG current change (%, negative = inhibition) at 10uM” value of the first is lower: -19.8% for the first, 7.72% for the second.
